Like-named read-outs stand apart in the source and are kept apart here. For part of these data: Not every detail of the peptide structures is certain; ends, links or a residue may be inferred. For part of these data: At least one structure is not confirmed: it was looked up by name or label, or the drawing left a doubt. Positions of bridges follow the written chain, without caps; N, C: chain ends. Residues, ends and D or L forms follow the SMILES beside them. No end group written: not given here. *: point of attachment. Biotin = O=C1N[C@H]2[C@H](CS[C@H]2CCCCC(=O)*)N1
Legend:
[1] = molecular target: human IGF-1 receptor (HIGF-1R) (Homo sapiens, UniProt P08069); assay: 125I-IGF-1 competition binding assay on solubilised purified receptor; details: for Kd: read-out: Kd (µM) HIGF1R; for Ratio: Kd HIGF1R / Kd HIR
[2] = molecular target: T1, human insulin receptor (HIR) (Homo sapiens, UniProt P06213); assay: 125I-insulin competition binding assay on solubilised purified receptor; details: read-out: Kd (µM) HIR
T1 construct: made in house

[3] = molecular target: T2, IGF-1R (Homo sapiens, UniProt P08069); assay: IGF-1R peptide assay, time-resolved FRET, competition with biotinylated 20E2 (IC50); format: binding
T2 construct: Soluble IGF-1R was obtained from R&D Systems; purchased R&D Systems 391-GR/CF

[4] = tested on: adipocytes; assay: 3H-glucose uptake into adipocytes (fat cell assay, FFC); format: cell-based, Mouse; parameters: key to Resp.: -2 (antagonist); +2 (agonist); details: for Resp.: Subjective ranking, basal and sub maximal insulin, includes series A
[5] = molecular target: T3, IR (Homo sapiens, UniProt P06213); assay: Phage ELISA, competition of phage binding by soluble synthetic peptides, IR-coated wells; details: Insulin Receptor, read-out: Kd (Hill plot)
T3 construct: composed of the extracellular domains of both the α and β chains of the natural receptor; made in house; background b13 names human embryonic kidney 293 cells for the Bass et al. construct

[6] = molecular target: T2, IGF-1R; assay: Phage ELISA, competition of phage binding by soluble synthetic peptides, IGF-1R-coated wells; details: IGF Receptor, read-out: Kd (Hill plot)

T2 sequence (P08069 31-736 limits assumed): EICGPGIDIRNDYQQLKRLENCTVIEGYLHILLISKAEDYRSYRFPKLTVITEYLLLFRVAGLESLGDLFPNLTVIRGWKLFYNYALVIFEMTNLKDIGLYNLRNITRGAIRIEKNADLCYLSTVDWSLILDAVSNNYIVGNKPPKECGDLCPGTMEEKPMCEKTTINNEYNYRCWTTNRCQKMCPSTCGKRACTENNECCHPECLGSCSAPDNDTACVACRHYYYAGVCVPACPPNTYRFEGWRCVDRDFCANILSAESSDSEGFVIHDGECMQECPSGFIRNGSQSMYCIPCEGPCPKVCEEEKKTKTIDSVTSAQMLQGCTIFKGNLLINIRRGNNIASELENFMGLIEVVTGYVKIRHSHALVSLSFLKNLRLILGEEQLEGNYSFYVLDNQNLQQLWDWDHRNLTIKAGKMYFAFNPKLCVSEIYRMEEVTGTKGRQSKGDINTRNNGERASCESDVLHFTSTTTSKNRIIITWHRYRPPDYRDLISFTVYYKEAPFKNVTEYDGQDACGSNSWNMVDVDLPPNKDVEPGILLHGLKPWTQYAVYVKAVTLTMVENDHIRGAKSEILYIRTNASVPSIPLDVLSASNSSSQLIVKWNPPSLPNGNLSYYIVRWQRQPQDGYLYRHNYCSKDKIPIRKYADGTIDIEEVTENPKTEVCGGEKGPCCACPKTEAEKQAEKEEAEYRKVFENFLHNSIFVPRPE
T2 sequence (P08069 741-935 limits assumed): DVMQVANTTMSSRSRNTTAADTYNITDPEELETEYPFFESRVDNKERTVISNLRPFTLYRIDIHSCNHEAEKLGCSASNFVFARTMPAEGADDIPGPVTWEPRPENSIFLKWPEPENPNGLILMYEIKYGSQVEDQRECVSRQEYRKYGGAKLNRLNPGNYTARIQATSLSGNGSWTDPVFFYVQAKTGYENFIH
human IGF-1 receptor (HIGF-1R), sequence (P08069 31-736 limits assumed): as the sequence (P08069 31-736 limits assumed) above
human IGF-1 receptor (HIGF-1R), sequence (P08069 741-1367 limits assumed): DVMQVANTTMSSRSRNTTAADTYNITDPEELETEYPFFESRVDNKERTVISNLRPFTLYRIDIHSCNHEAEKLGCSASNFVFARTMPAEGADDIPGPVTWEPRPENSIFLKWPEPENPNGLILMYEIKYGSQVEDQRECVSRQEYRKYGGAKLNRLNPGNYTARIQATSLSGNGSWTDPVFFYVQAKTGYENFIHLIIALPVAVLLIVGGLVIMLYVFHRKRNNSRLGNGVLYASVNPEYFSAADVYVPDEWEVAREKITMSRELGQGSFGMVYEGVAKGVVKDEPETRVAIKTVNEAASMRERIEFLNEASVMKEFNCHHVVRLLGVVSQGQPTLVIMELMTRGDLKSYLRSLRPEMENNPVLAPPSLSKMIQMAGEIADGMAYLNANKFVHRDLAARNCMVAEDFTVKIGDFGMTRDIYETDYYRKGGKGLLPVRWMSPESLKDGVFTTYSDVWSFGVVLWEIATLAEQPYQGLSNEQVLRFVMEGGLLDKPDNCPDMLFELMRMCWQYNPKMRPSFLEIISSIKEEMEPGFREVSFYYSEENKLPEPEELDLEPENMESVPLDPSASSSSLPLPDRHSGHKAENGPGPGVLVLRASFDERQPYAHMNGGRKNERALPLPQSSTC
T1 sequence (P06213 28-758 limits assumed): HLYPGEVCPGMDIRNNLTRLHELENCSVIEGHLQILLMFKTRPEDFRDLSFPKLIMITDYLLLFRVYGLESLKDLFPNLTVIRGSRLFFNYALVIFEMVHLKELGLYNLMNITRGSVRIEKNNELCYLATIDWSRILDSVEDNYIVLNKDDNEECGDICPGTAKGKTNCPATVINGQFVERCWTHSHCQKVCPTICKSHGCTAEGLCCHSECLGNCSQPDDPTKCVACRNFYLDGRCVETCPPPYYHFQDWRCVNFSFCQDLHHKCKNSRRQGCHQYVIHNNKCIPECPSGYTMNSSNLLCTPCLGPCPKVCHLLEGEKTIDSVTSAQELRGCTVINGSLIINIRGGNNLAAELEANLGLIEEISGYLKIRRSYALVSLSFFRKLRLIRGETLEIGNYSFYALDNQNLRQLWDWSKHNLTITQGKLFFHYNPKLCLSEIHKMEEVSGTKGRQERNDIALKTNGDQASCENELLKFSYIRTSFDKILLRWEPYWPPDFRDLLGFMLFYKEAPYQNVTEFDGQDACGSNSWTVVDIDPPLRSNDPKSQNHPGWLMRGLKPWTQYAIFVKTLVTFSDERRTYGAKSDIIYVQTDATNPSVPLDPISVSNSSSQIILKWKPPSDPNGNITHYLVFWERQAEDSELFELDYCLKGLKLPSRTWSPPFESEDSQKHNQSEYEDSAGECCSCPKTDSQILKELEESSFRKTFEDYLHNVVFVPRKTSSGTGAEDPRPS
T1 sequence (P06213 763-1382 limits assumed): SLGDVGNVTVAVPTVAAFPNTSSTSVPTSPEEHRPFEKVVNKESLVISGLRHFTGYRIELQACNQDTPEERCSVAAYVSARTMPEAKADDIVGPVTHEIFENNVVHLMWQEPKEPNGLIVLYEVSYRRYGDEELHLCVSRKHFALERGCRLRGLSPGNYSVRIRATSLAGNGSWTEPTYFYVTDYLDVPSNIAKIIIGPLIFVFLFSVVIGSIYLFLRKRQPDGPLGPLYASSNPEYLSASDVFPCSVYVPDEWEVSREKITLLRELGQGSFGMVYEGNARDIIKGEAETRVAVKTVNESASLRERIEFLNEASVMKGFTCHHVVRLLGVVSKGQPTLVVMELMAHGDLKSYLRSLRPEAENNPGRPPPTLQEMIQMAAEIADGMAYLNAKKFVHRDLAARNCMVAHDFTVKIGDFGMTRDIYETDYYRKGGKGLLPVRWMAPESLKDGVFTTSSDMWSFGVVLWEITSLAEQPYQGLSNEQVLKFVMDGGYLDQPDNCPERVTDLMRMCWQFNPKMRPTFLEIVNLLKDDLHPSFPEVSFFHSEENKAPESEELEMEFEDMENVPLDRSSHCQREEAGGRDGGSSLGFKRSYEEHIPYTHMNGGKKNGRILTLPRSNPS
T3 sequence (P06213 28-758 limits assumed): as the sequence (P06213 28-758 limits assumed) above
T3 sequence (P06213 763-956 limits assumed): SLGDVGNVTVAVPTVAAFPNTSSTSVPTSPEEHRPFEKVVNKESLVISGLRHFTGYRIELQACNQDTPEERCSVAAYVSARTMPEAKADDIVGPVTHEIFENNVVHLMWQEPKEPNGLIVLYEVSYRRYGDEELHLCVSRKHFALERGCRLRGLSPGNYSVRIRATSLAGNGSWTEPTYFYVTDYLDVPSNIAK

Row | Molecule | Kd [1] [µM] | Kd [2] [µM] | IC50 [3] [nM] | Resp. [4] | Ratio [1] | other results
1 | CSCC[C@H](NC(=O)[C@@H](NC(=O)[C@H](CO)NC(=O)[C@H](CC(C)C)NC(=O)[C@H](CC(C)C)NC(=O)[C@H](C)NC(=O)[C@H](CO)NC(=O)[C@H](Cc1c[nH]c2ccccc12)NC(=O)[C@@H](N)CCCCN)C(C)C)C(=O)N[C@@H](CC(=O)O)C(=O)N[C@H](C(=O)NCC(=O)N[C@@H](Cc1ccccc1)C(=O)N[C@@H](Cc1ccc(O)cc1)C(=O)N[C@@H](C)C(=O)N[C@@H](Cc1c[nH]c2ccccc12)C(=O)N[C@@H](Cc1ccccc1)C(=O)N[C@@H](CC(=O)O)C(=O)N[C@@H](CC(=O)O)C(=O)N[C@@H](C)C(=O)N[C@H](C(=O)N[C@@H](CCCCN)C(=O)N[C@@H](CCCCNC(=O)CCCC[C@@H]1SC[C@@H]2NC(=O)N[C@@H]21)C(N)=O)C(C)C)[C@@H](C)O [Clone B8] (H-KWSALLSVMDTGFYAWFDDAVKK(Biotin)-NH2; N-terminus assumed) | 15 | 0.74 |  |  |  | 
2 | CC(C)C[C@H](NC(=O)[C@H](Cc1c[nH]c2ccccc12)NC(=O)[C@@H](N)CCCCN)C(=O)N[C@@H](CC(=O)O)C(=O)N[C@@H](CCC(N)=O)C(=O)N[C@@H](CCC(=O)O)C(=O)N[C@@H](Cc1c[nH]c2ccccc12)C(=O)N[C@@H](C)C(=O)N[C@@H](Cc1c[nH]c2ccccc12)C(=O)N[C@H](C(=O)N[C@@H](CCC(N)=O)C(=O)N[C@H]1CSSC[C@@H](C(=O)N2CCC[C@H]2C(=O)N[C@@H](CO)C(=O)N[C@@H](CCCCN)C(=O)N[C@@H](CCCCNC(=O)CCCC[C@@H]2SC[C@@H]3NC(=O)N[C@@H]32)C(N)=O)NC(=O)CNC(=O)[C@H](CCCNC(=N)N)NC(=O)CNC(=O)[C@H](Cc2ccc(O)cc2)NC(=O)[C@H](C(C)C)NC(=O)[C@H](CCC(=O)O)NC1=O)C(C)C [Clone D8] (H-KWLDQEWAWVQCEVYGRGCPSKK(Biotin)-NH2; disulfide 12-19 (inferred); N-terminus assumed) | 16 |  | 21700 |  |  | IC50 ([3]; listed as D8 (B12)): 11300 nM
3 | C[C@@H](O)[C@H](NC(=O)[C@@H]1CCCN1C(=O)[C@H](CCCCN)NC(=O)[C@H](CC(=O)O)NC(=O)[C@H](CCCNC(=N)N)NC(=O)[C@@H](N)CCCCN)C(=O)N[C@@H](CC(=O)O)C(=O)N[C@@H](CCC(N)=O)C(=O)N[C@@H](CCC(=O)O)C(=O)N[C@@H](CCC(=O)O)C(=O)N[C@@H](CCC(N)=O)C(=O)N[C@@H](CC(N)=O)C(=O)N[C@@H](Cc1c[nH]c2ccccc12)C(=O)N[C@@H](CO)C(=O)N[C@@H](Cc1ccccc1)C(=O)N[C@@H](Cc1ccc(O)cc1)C(=O)N[C@@H](CCC(=O)O)C(=O)N[C@@H](Cc1c[nH]c2ccccc12)C(=O)N[C@@H](Cc1ccccc1)C(=O)N[C@@H](CCCNC(=N)N)C(=O)N[C@@H](Cc1c[nH]cn1)C(=O)N[C@@H](CCCCN)C(=O)N[C@@H](CCCCNC(=O)CCCC[C@@H]1SC[C@@H]2NC(=O)N[C@@H]21)C(N)=O [Clone D105] (H-KRDKPTDQEEQNWSFYEWFRHKK(Biotin)-NH2) |  |  |  | 0 | 4.3 | 
4 | CC(C)C[C@H](NC(=O)[C@H](CCC(N)=O)NC(=O)[C@H](CCCNC(=N)N)NC(=O)[C@H](CCC(=O)O)NC(=O)[C@H](Cc1ccccc1)NC(=O)[C@H](Cc1c[nH]c2ccccc12)NC(=O)[C@H](CC(=O)O)NC(=O)[C@H](Cc1ccc(O)cc1)NC(=O)[C@H](Cc1ccccc1)NC(=O)[C@H](CO)NC(=O)[C@H](CCC(=O)O)NC(=O)[C@H](CC(=O)O)NC(=O)[C@H](CC(C)C)NC(=O)[C@H](CO)NC(=O)CN)C(=O)NCC(=O)N[C@@H](CCCCN)C(=O)N[C@@H](CCCCN)C(=O)O [H2C-PD1-IGFR(RP9)] |  |  | 33 |  |  | 
5 | CC(C)C[C@H](NC(=O)[C@H](CCC(N)=O)NC(=O)[C@H](CCCNC(=N)N)NC(=O)[C@H](CO)NC(=O)[C@H](Cc1ccccc1)NC(=O)[C@H](Cc1c[nH]c2ccccc12)NC(=O)CNC(=O)[C@H](Cc1ccc(O)cc1)NC(=O)[C@H](Cc1ccccc1)NC(=O)[C@@H](N)CCCCN)C(=O)N[C@@H](CO)C(=O)N[C@@H](CC(C)C)C(=O)N[C@H](C(=O)N1CCC[C@H]1C(=O)N[C@@H](CCCNC(=N)N)C(=O)N[C@@H](CC(=O)O)C(=O)N[C@@H](CC(=O)O)C(=O)N[C@@H](Cc1c[nH]c2ccccc12)C(=O)NCC(=O)N[C@@H](CC(C)C)C(=O)N1CCC[C@H]1C(=O)N[C@@H](CCCCN)C(=O)N[C@@H](CCCCNC(=O)CCCC[C@@H]1SC[C@@H]2NC(=O)N[C@@H]21)C(N)=O)[C@@H](C)O [Clone D108] (H-KFYGWFSRQLSLTPRDDWGLPKK(Biotin)-NH2) |  |  |  | -1 | 8.3 | 
6 | CC(C)C[C@H](NC(=O)[C@H](C)NC(=O)[C@H](C)NC(=O)[C@H](CCC(N)=O)NC(=O)[C@@H]1CCCN1C(=O)[C@@H](NC(=O)[C@@H](NC(=O)[C@H](Cc1ccc(O)cc1)NC(=O)[C@H](Cc1c[nH]cn1)NC(=O)[C@H](CO)NC(=O)[C@H](CCC(=O)O)NC(=O)[C@H](CC(C)C)NC(=O)[C@@H](N)CCCCN)C(C)C)C(C)C)C(=O)N[C@@H](CC(=O)O)C(=O)N[C@@H](CCCNC(=N)N)C(=O)N[C@@H](CC(C)C)C(=O)N[C@@H](Cc1ccccc1)C(=O)N[C@@H](Cc1ccc(O)cc1)C(=O)N[C@@H](CO)C(=O)N[C@@H](Cc1c[nH]c2ccccc12)C(=O)N[C@@H](Cc1ccccc1)C(=O)N[C@@H](CO)C(=O)N[C@@H](CCCCN)C(=O)N[C@@H](CCCCNC(=O)CCCC[C@@H]1SC[C@@H]2NC(=O)N[C@@H]21)C(N)=O [Clone D107] (H-KLESHYVVPQAALDRLFYSWFSKK(Biotin)-NH2) |  |  |  | -2 | 8.8 | 
7 | WNTVDPFYHKLSELLREKK [Clone B6] |  |  | 631 |  |  | 
8 | CC(C)[C@H](NC(=O)[C@H](C)NC(=O)[C@H](CO)NC(=O)[C@@H](NC(=O)[C@H](Cc1ccccc1)NC(=O)[C@@H](NC(=O)[C@@H](NC(=O)[C@H](CC(=O)O)NC(=O)[C@H](CCCCN)NC(=O)[C@H](Cc1ccc(O)cc1)NC(=O)[C@@H](N)CC(=O)O)C(C)C)[C@@H](C)O)[C@@H](C)O)C(=O)N[C@@H](Cc1ccccc1)C(=O)N[C@@H](Cc1c[nH]cn1)C(=O)N[C@@H](CCC(=O)O)C(=O)N[C@@H](CC(N)=O)C(=O)N[C@@H](Cc1ccccc1)C(=O)N[C@@H](Cc1ccc(O)cc1)C(=O)N[C@@H](CC(=O)O)C(=O)N[C@@H](Cc1c[nH]c2ccccc12)C(=O)N[C@@H](Cc1ccccc1)C(=O)N[C@H](C(=O)N[C@@H](CCCNC(=N)N)C(=O)N[C@@H](CCC(N)=O)C(=O)N[C@H](C(=O)N[C@@H](CO)C(=O)N[C@@H](CCCCN)C(=O)N[C@@H](CCCCNC(=O)CCCC[C@@H]1SC[C@@H]2NC(=O)N[C@@H]21)C(N)=O)C(C)C)C(C)C [Clone H2] | 5.4 | 0.75 |  |  |  | Kd ([5]; 20D3 Phage): 1130 nM; Kd ([5]; H2 Phage): 762 nM; Kd ([6]; 20D3 Phage): 4960 nM; Kd ([6]; H2 Phage): 9810 nM
9 | GSFYEALQRLVGGEQGKK [20E2-PD1-IGFR (RP10)] |  |  | 315 |  |  | 
10 | CC(C)C[C@@H]1NC(=O)[C@H](CO)NC(=O)[C@H](C)NC(=O)CNC(=O)[C@H](Cc2c[nH]c3ccccc23)NC(=O)[C@H](Cc2ccccc2)NC(=O)[C@H](CC(C)C)NC(=O)[C@H](CCC(=O)O)NC(=O)[C@H](CCC(=O)O)NC(=O)[C@H](CC(C)C)NC(=O)[C@H](C(C)C)NC(=O)[C@@H](NC(=O)[C@H](CC(C)C)NC(=O)[C@H](Cc2c[nH]cn2)NC(=O)[C@@H](N)CCCCN)CSSC[C@@H](C(=O)N[C@@H](CO)C(=O)NCC(=O)N[C@@H](CCCCN)C(=O)N[C@@H](CCCCNC(=O)CCCC[C@@H]2SC[C@@H]3NC(=O)N[C@@H]32)C(=O)O)NC(=O)[C@H](Cc2ccc(O)cc2)NC(=O)CNC(=O)[C@H](Cc2ccccc2)NC1=O [Clone D124A] (H-KHLCVLEELFWGASLFGYCSGKK(Biotin)-OH; disulfide 4-19 (inferred); N-terminus assumed) | > 20 | 0.09 |  |  |  | 
11 | CC(C)[C@H](NC(=O)[C@H](Cc1ccccc1)NC(=O)[C@H](Cc1c[nH]c2ccccc12)NC(=O)[C@H](CC(=O)O)NC(=O)[C@H](Cc1ccc(O)cc1)NC(=O)[C@H](Cc1ccccc1)NC(=O)[C@H](CC(N)=O)NC(=O)[C@H](CCC(=O)O)NC(=O)[C@H](Cc1c[nH]cn1)NC(=O)[C@H](Cc1ccccc1)NC(=O)[C@@H](N)CCCCN)C(=O)N[C@@H](CCCNC(=N)N)C(=O)N[C@@H](CCC(N)=O)C(=O)N[C@H](C(=O)N[C@@H](CO)C(=O)N[C@@H](CCCCN)C(=O)N[C@@H](CCCCNC(=O)CCCC[C@@H]1SC[C@@H]2NC(=O)N[C@@H]21)C(N)=O)C(C)C [Clone D117K] |  |  |  | +2 | 11.1 | ED50 ([4]; Estimated, not calculated values): > 20000 nM
12 | CC[C@H](C)[C@H](NC(=O)[C@H](CCC(=O)O)NC(=O)[C@@H](N)CCCCN)C(=O)N[C@@H](CCC(=O)O)C(=O)N[C@@H](C)C(=O)N[C@@H](CCC(=O)O)C(=O)N[C@@H](Cc1c[nH]c2ccccc12)C(=O)NCC(=O)N[C@@H](CCCNC(=N)N)C(=O)N[C@H](C(=O)N[C@@H](CCCNC(=N)N)C(=O)N[C@H]1CSSC[C@@H](C(=O)N[C@H](C(=O)NCC(=O)NCC(=O)N[C@@H](CCCCN)C(=O)N[C@@H](CCCCNC(=O)CCCC[C@@H]2SC[C@@H]3NC(=O)N[C@@H]32)C(=O)O)C(C)C)NC(=O)[C@H](CCCNC(=N)N)NC(=O)CNC(=O)[C@H](Cc2ccc(O)cc2)NC(=O)[C@H](C(C)C)NC(=O)[C@H](CC(C)C)NC1=O)C(C)C [Clone D122A] (H-KEIEAEWGRVRCLVYGRCVGGKK(Biotin)-OH; disulfide 12-18 (inferred); N-terminus assumed) | > 20 | 1 |  |  |  | 

From patent EP1383793B1 (priority 2000, dated 2001)
